Experimental data as given in PubChem BioAssay (NCI).
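Test compounds were applied to cells in 96-well plates for 48 hours at 5 doses. At the GI50, growth is halved.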 For part of its entries the source gives two or more results. The list is limited to them. There may be further records. For some of these results: The tests behind the records often covered other concentration ranges, not given here; a value can be the end of its range. For some of these results: The values listed for one entry are repeated measurements in other runs, samples, wells, individuals or studies. Brackets tell where a record comes from. The letters are not those of the source and start again with each entry.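 TGI marks complete inhibition of growth.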

Legend:
Test in all cases: DTP human tumour cell line panel, 48 h
[1] = system: ACHN renal
[2] = system: CCRF-CEM leukemia
[3] = system: COLO 205 colon
[4] = system: DLD-1 colon
[5] = system: DU-145 prostate
[6] = system: HCC-2998 colon
[7] = system: HL-60(TB) leukemia
[8] = system: HOP-62 NSCLC
[9] = system: HS 578T breast
[10] = system: K-562 leukemia
[11] = system: M14 melanoma
[12] = system: MDA-MB-435
[13] = system: MOLT-4 leukemia
[14] = system: NCI-H226 lung
[15] = system: NCI-H23 lung
[16] = system: NCI-H522 lung
[17] = system: OVCAR-3 ovarian
[18] = system: PC-3 prostate
[19] = system: RXF 393 renal
[20] = system: SF-268 CNS
[21] = system: SF-295 CNS
[22] = system: SF-539 CNS
[23] = system: SK-MEL-2 melanoma
[24] = system: SN12C renal
[25] = system: SNB-75 CNS
[26] = system: U251 CNS
[27] = system: UACC-257 melanoma
[28] = system: UACC-62 melanoma
[29] = system: HCT-15 colon
[30] = system: MALME-3M melanoma
[31] = system: NCI/ADR-RES ovarian
[32] = system: SK-MEL-28 melanoma
[33] = system: SK-MEL-5 melanoma
[34] = system: SR leukemia
[35] = system: SW-620 colon

In the case of `COc1cc([C@@H]2c3cc4c(cc3[C@@H](OC3OC5COC(C)OC5C(O)C3O)[C@H]3COC(=O)[C@H]23)OCO4)cc(OC)c1O` (stereo partly specified), the TGI [1] is reported as 50.5 µM [1 test] and 6.36 µM [mean of 6 tests] and > 81.8 µM [mean of 7 tests], the TGI [2] is reported as 500 µM and 47.8 µM and the TGI [3] is reported as > 90.2 µM, 103 µM, 260 µM, 151 µM. For the same molecule, the TGI [4] was 17.1 µM and 278 µM, the TGI [5] was 23.3 µM, 500 µM, 3.83 µM and the TGI [6] was 59.5, 12.3, 14.2, 31 µM. The TGI [7] was 18.2, 4.24, 2.68, 13.3 µM, the TGI [8] was 65.2, 3.85, 16.4, 12.2 µM and the TGI [9] was 65.1 µM, 40.1 µM, 3.02 µM. The TGI [10] was 24.5 µM, 500 µM [1 test] and 292 µM [mean of 31 tests], the TGI [11] was 132 µM [1 test] and 6.33 µM [mean of 5 tests] and > 97.5 µM [mean of 6 tests] and the GI50 [12] was 335 nM [1 test] and 14.2 µM [mean of 2 tests]. For the same molecule, the TGI [13] was 66, 1.5, 13.1, 17.7 µM, the TGI [14] was 61.5, 17.2, 35.8, 23.2 µM and the TGI [15] was > 81.4 µM, 10.7 µM, 30.6 µM, 43 µM. For the same molecule, the TGI [16] was 71.9, 18.6, 187, 35.5 µM, the TGI [17] was > 94.7 µM, 39.2 µM, 61.1 µM, 145 µM and the TGI [18] was 500 µM and 3.66 µM. For the same molecule, the TGI [19] was 67.1, 29.7, 10.8, 79.3 µM, the TGI [20] was > 93.6 µM, 22.1 µM, 28.7 µM, 169 µM and the TGI [21] was > 85.1 µM, 60.9 µM, 32.5 µM, 47.7 µM. For the same molecule, the TGI [22] was 62.1, 7.03, 10.3, 16.9 µM, the TGI [23] was 76.8, 18.5, 259, 70.4 µM and the TGI [24] was 57.2, 37, 18, 45.1 µM. The TGI [25] was > 77.4 µM, 9.95 µM, 12.3 µM, 93.3 µM, the TGI [26] was > 72.6 µM, 111 µM, 500 µM, 29.2 µM and the TGI [27] was 33.2 µM, 500 µM, 234 µM. The TGI [28] was > 97.2 µM, 17.6 µM, 19.6 µM, 57.1 µM.

`COc1cc2c3c(c4cc(OC)c(OC)cc4c2cc1OC)CN1CCC[C@H]1C3` was tested, and the TGI [3] was 543 nM [sample A, 1 test] and 36.7 nM [sample B, mean of 2 tests], the TGI [29] was 2.22 µM [sample A, 1 test] and > 100 µM [sample B, 1 test] and the TGI [7] was > 10 µM [sample A, 1 test] and 600 nM [sample B, mean of 2 tests]. The GI50 [10] was 377 nM [sample A, 1 test] and < 10 nM [sample B, mean of 2 tests], the GI50 [30] was 19.8 nM [sample A, 1 test] and 364 nM [sample B, mean of 2 tests] and the TGI [30] was 92.8 nM [sample A, 1 test] and 2.68 µM [sample B, mean of 2 tests]. The TGI [31] was 4.13 µM [sample A, 1 test] and > 100 µM [sample B, 1 test], the GI50 [18] was 259 nM [sample A, 1 test] and 12.6 nM [sample B, 1 test] and the TGI [18] was > 10 µM [sample A, 1 test] and 166 nM [sample B, 1 test]. For the same molecule, the TGI [20] was 231 nM [sample A, 1 test] and 7.83 µM [sample B, mean of 2 tests], the TGI [21] was 1.4 µM [sample A, 1 test] and 76 nM [sample B, mean of 2 tests] and the TGI [23] was 599 nM [sample A, 1 test] and < 30.7 nM [sample B, mean of 2 tests]. The TGI [32] was 78.5 nM [sample A] and 6.08 µM [sample B], the TGI [33] was 1.52 µM [sample A, 1 test] and 113 nM [sample B, mean of 2 tests] and the TGI [34] was 3.12 µM [sample A, 1 test] and 47.5 µM [sample B, mean of 2 tests]. For the same molecule, the TGI [35] was 4.43 µM [sample A, 1 test] and > 100 µM [sample B, mean of 2 tests], the GI50 [28] was 164 nM [sample A, 1 test] and < 16 nM [sample B, mean of 2 tests] and the TGI [28] was > 10 µM [sample A, 1 test] and 481 nM [sample B, mean of 2 tests].
